This note sets out measurements from PubChem BioAssay AID1851 (National Center for Advancing Translational Sciences (NCATS), 2009).

The hits were mostly taken out for another list; the other results follow. Results filed as inconclusive are left out. Calls of active or inactive are those of the source. The call rests on the fitted dose curve; in most records, active means well fitted curve in the direction sought with a large enough effect; inconclusive means small, poorly fitted or top-dose-only effect, or effect the other way; inactive means no such curve, though single readings can be large or run the other way.
On the % scale 0 is the no-effect control and ±100 the full control effect.

The assay has as its target Cytochrome P450 1A2 (Homo sapiens) (UniProt P05177). Put plainly: Cytochrome panel assay with activity outcomes. The note with it: recombinant CYP, pro-luciferin dealkylation, luminescence, p450-cyp1a2; at 25.6 µM (top of the series).
Chain of UniProt P05177 (P05177 whole entry, looked up): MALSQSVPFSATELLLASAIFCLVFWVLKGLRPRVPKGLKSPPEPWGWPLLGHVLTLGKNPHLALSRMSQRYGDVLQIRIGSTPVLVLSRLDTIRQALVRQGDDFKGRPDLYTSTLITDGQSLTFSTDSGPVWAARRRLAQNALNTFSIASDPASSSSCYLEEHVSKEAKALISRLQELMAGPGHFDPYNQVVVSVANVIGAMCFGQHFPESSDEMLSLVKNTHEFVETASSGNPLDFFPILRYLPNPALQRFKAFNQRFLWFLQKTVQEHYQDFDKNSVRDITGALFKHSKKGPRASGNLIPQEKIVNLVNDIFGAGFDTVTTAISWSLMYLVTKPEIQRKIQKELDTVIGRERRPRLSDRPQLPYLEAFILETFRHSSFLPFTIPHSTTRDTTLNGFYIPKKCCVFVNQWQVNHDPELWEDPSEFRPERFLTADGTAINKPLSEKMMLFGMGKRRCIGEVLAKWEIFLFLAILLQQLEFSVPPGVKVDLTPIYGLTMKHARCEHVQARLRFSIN
As for `CC(=O)[C@@H]1CC[C@H]2[C@H]3CC[C@H]4C[C@@H](O)CC[C@]4(C)[C@@H]3C(=O)C[C@@]12C`, the activity, negative = inhibition was inactive: -16.7%.
